Not every detail of the peptide structures is certain; ends, links or a residue may be inferred. Ends that are not written are not given here. Peptide text beside a SMILES is read from it.
What was measured:
Format in all cases: cell-based
A. castellani = test: Antiprotozoan activity, minimal disruptive concentration; settings: complete physical disruption within 10 minutes at room temperature, distilled water, microscopic examination
P. caudatum = test: as above; settings: complete physical disruption within 10 minutes at room temperature, distilled water, microscopic examination
T. pyriformis = test: as above; settings: complete physical disruption within 10 minutes at room temperature, distilled water, microscopic examination
E. coli = test: Antibacterial activity, zone of inhibition on agarose overlay plate; settings: 10 ul of peptide at 5 mg/ml spotted, 37° C., 8 hrs
S. aureus = test: as above; settings: 10 ul of peptide at 5 mg/ml spotted, 37° C., 8 hrs

AFSKAFSKAFSKAFSKAFSK [Peptide 5]
MINIMAL DISRUPTIVE CONCENTRATION A. castellani (A. castellani): 10 µg/mL
MINIMAL DISRUPTIVE CONCENTRATION P. caudatum (P. caudatum): 50 µg/mL
MINIMAL DISRUPTIVE CONCENTRATION T. pyriformis (T. pyriformis): 50 µg/mL
ZONE OF INHIBITION (mm) E. coli (E. coli): 10 mm
ZONE OF INHIBITION (mm) S. aureus (S. aureus): 5 mm

C[C@H](N)C(=O)N[C@@H](Cc1ccccc1)C(=O)N[C@@H](CO)C(=O)N[C@@H](CCCCN)C(=O)O [Peptide 1, Ala-Phe-Ser-Lys-] (H-AFSK-OH)
MINIMAL DISRUPTIVE CONCENTRATION A. castellani (A. castellani): > 500 µg/mL
MINIMAL DISRUPTIVE CONCENTRATION P. caudatum (P. caudatum): > 500 µg/mL
MINIMAL DISRUPTIVE CONCENTRATION T. pyriformis (T. pyriformis): > 500 µg/mL
ZONE OF INHIBITION (mm) E. coli (E. coli): 0 mm
ZONE OF INHIBITION (mm) S. aureus (S. aureus): 0 mm

AFSKAFSK [Peptide 2, Ala-Phe-Ser-Lys-Ala-Phe-Ser-Lys-]
MINIMAL DISRUPTIVE CONCENTRATION A. castellani (A. castellani): > 500 µg/mL
MINIMAL DISRUPTIVE CONCENTRATION P. caudatum (P. caudatum): > 500 µg/mL
MINIMAL DISRUPTIVE CONCENTRATION T. pyriformis (T. pyriformis): > 500 µg/mL
ZONE OF INHIBITION (mm) E. coli (E. coli): 0 mm
ZONE OF INHIBITION (mm) S. aureus (S. aureus): 0 mm

AFSKAFSKAFSK [Peptide 3, Ala-Phe-Ser-Lys-Ala-Phe-Ser-Lys-Ala-Phe-Ser-Lys-]
MINIMAL DISRUPTIVE CONCENTRATION A. castellani (A. castellani): > 500 µg/mL
MINIMAL DISRUPTIVE CONCENTRATION P. caudatum (P. caudatum): > 500 µg/mL
MINIMAL DISRUPTIVE CONCENTRATION T. pyriformis (T. pyriformis): > 500 µg/mL
ZONE OF INHIBITION (mm) E. coli (E. coli): 0 mm
ZONE OF INHIBITION (mm) S. aureus (S. aureus): 0 mm

AFSKAFSKAFSKAFSKAFSKAFSK [Peptide 6]
MINIMAL DISRUPTIVE CONCENTRATION A. castellani (A. castellani): 5 µg/mL
MINIMAL DISRUPTIVE CONCENTRATION P. caudatum (P. caudatum): 10 µg/mL
MINIMAL DISRUPTIVE CONCENTRATION T. pyriformis (T. pyriformis): 10 µg/mL
ZONE OF INHIBITION (mm) E. coli (E. coli): 20 mm
ZONE OF INHIBITION (mm) S. aureus (S. aureus): 10 mm

AFSKAFSKAFSKAFSK [Peptide 4, Ala-Phe-Ser-Lys-Ala-Phe-Ser-Lys-Ala-Phe-Ser-Lys-Ala-Phe-Ser-Lys-]
MINIMAL DISRUPTIVE CONCENTRATION A. castellani (A. castellani): > 500 µg/mL
MINIMAL DISRUPTIVE CONCENTRATION P. caudatum (P. caudatum): > 500 µg/mL
MINIMAL DISRUPTIVE CONCENTRATION T. pyriformis (T. pyriformis): > 500 µg/mL
ZONE OF INHIBITION (mm) E. coli (E. coli): 0 mm
ZONE OF INHIBITION (mm) S. aureus (S. aureus): 0 mm
